Among all 340,000 compounds or so, about 6,900 (2%) were called active. No stated cut-off is given here; in the data, active means inhibition above about 30%; inactive means below that, where a call was filed. This is a selection; strong and weak results do not stand in their true shares. The source gives no active or inactive call for entries shown without one.

We go through 95 compounds from PubChem BioAssay AID485344 (National Center for Advancing Translational Sciences (NCATS), 2010).

For this assay, the target named is D(2) dopamine receptor (Homo sapiens) (UniProt P14416). The assay can be described thus: HTS Assay for Allosteric Antagonists of the Human D2 Dopamine Receptor: Primary Screen for Antagonists. Further: 0% is about no effect. The conditions noted are these: HEK293 TREx D2 cells, calcium flux, dopamine EC80; at 10 µM; stronger effect = higher value. The procedure, abridged: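 Read-out: kinetic calcium fluorescence (1 cycle/s) in inducible HEK293 T-REx D2 cells after an EC80 dopamine addition that followed 180 s compound preincubation. Loss of the dopamine response indicates antagonism.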
UniProt P14416, sequence (P14416 whole entry, looked up): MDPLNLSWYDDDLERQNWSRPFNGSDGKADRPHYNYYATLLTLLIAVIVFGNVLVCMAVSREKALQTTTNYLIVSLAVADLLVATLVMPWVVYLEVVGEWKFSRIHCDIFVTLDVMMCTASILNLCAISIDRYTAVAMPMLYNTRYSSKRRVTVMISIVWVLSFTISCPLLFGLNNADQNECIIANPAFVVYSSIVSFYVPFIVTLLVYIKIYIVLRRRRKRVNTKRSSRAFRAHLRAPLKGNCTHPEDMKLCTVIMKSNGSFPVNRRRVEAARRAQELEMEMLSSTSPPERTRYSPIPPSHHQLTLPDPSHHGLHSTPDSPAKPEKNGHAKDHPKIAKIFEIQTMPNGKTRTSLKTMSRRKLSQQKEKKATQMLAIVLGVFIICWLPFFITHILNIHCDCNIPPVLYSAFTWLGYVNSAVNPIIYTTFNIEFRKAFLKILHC
For `Cc1cccc(Cn2nc(C)n3c(cc4cc(C)ccc43)c2=O)c1`, the inhibition (usually the drop in the measured response relative to a control, in per cent) was -2.21%. For `CCc1ccc2oc(C(=O)Nc3c(C)n(C)n(-c4ccccc4)c3=O)cc(=O)c2c1` the value was -10.7%; for `N#Cc1ccc(C(=O)NCc2ccc3c(c2)CCN3C(=O)c2ccc(F)cc2)cc1`, 5.26%.

Take `CCOC(=O)c1ccc(N2C(=O)c3n[nH]c(C)c3C2c2ccccc2OC)cc1` (stereo not given): the inhibition is -7.47%.

Regarding `COc1cc(/C=C2\SC(=Nc3ccccc3)NC2=O)cc(Cl)c1O`, the inhibition is active: 38.5%.

Turning to `Cc1ccc(Nc2ncc(C(=O)N3CCN(c4ccc(F)cc4)CC3)c3ccccc23)cc1Cl`, the inhibition was -5.07%. For the compound `CCOc1ccc(-c2nonc2NC(=O)c2oc3cc(C)c(C)cc3c2C)cc1OCC`, the inhibition was -23.8%. The same measure for `CN(C(=O)N1CCN(c2ccccn2)CC1)c1ccccc1`: active: 38.5%. For `Cc1ccc(NC(=O)C2CCCN2S(=O)(=O)c2cccc3nsnc23)c(C)c1` (stereo not given) the value was -7.93%. For `Cc1ccc(C)c(-n2c3nc(=O)[nH]c(=O)c-3cc3c(C)nn(-c4ccccc4)c32)c1` the value was -21.9%; for `COc1cccc(CNS(=O)(=O)c2cc3[nH]c(=O)c(=O)[nH]c3cc2C)c1`, -5.55%; for `Cc1ccc(CNC(=O)CC(C)CC2=NS(=O)(=O)c3ccccc3N2)cc1` (stereo not given), 26.5%. `CCc1ccc(N2CCn3c2nc2c3c(=O)n(C/C=C/c3ccccc3)c(=O)n2C)cc1`: the inhibition was -6.09%. Regarding `COc1ccc(NC(=O)c2c(NCc3ccc(N(C)C)cc3)sc3c2CCC3)cc1`, the inhibition was -13.1%. In the case of `CCOc1ccccc1NC(=O)N(Cc1ccc(F)cc1)C1CCN(CC)CC1`, the inhibition came to 2.82%. Take `O=C(NCc1nc2ccccc2[nH]1)c1cccc(S(=O)(=O)N2CCOCC2)c1`: the inhibition was active: 37.8%.

As to `Cc1ccsc1CN(C(=O)c1oc2ccc(F)cc2c1C)C1CCS(=O)(=O)C1` (stereo not given), the inhibition was -0.334%.

`O=C(COC(=O)c1cc[n+]([O-])cc1)NCCc1ccc(Cl)cc1Cl`: the inhibition was active: 33.7%. Turning to `CCOC(=O)c1cccc(NC(=O)c2cc3c(=O)n(C)c4ccccc4c3n2C)c1`, the inhibition is -9.33%. With `CCc1nnc2c(Nc3cccc(F)c3)nc3ccc(C(=O)c4ccccc4)cc3n12`, the inhibition is -5.54%. For `Cc1ccc(CNC(=O)CCN2C(=O)COc3ccc(C)cc32)cc1` the value was -18.4%; for `Cc1cc(C)cc(NC(=O)c2ccc3c(c2)nnn3C2CCCC2)c1`, -3.89%. The same measure for `Cc1ccc(NC2=C(CC(=O)O)C(c3ccc(F)cc3)N(c3ccc(C)cc3)C2=O)cc1` (stereo not given): 23.9%; for `N#CC1=C(N)OC2=C(CC/C2=C\c2ccc(F)cc2)C1c1ccc(F)cc1` (stereo not given): active: 37.2%; for `Cc1ccc(N(Cc2ccccc2)C(=O)c2ccc(F)c(S(=O)(=O)N3CCOCC3)c2)cc1`: active: 59%. For `CCN(CC)CCOC(=O)c1ccc(NC(=O)c2nn(C)c3c2COc2ccccc2-3)cc1` the value was 12.2%; for `CC1CCN(S(=O)(=O)c2nnc(NC(=O)c3ccc(C(C)C)cc3)s2)CC1`, 20%.

As for `O=C(CCCN1C(=O)c2cccnc2Oc2ccc(Cl)cc21)NCc1ccccc1F`, the inhibition was 6.42%. For `O=C(c1cc(-c2cccc(Cl)c2)on1)N1CCN(c2ccccc2)CC1` the value was 7.98%; for `CC(C)c1cnc2c(c1SCC(=O)Nc1ccc(OC(F)(F)F)cc1)c(=O)n(C)c(=O)n2C`, 11.2%.

Take `Cc1ccc(S(=O)(=O)C(CNC(=O)c2ccc(F)c(F)c2)c2ccco2)cc1` (stereo not given): the inhibition is 12.2%. The same measure for `O=C(CSc1oc(-c2ccco2)nc1S(=O)(=O)c1ccc(Br)cc1)c1ccccc1`: 1.66%; for `CCS(=O)(=O)c1ccc(O)c(Nc2cc(C)nc(SC)n2)c1`: -11.4%. For `CCCCn1c(=O)c2oc3ccccc3c2n(Cc2cccc(F)c2)c1=O` the value was 7.55%; for `Cc1ccc(COc2ccc(-c3cc(C(F)(F)F)n4nc(C)cc4n3)cc2)cc1`, -14.1%; for `O=S(=O)(Nc1nc2ccccc2nc1Nc1ccccc1Br)c1ccccc1`, 3.31%. For `COc1ccc(CNS(=O)(=O)c2cc3c4c(c2)CCN4C(=O)CC3)cc1` the value was -13.4%; for `O=C(CSc1nc2c([nH]c3ccccc32)c(=O)n1-c1cccc(Cl)c1)NCC1CCCO1` (stereo not given), 27.3%; for `O=C(Cn1c2ncccc2c(=O)n1-c1ccccc1)NCc1ccccc1Cl`, 5.67%. As to `CCOc1ccc(-c2cn(-c3ccc(C)cc3)c(SCC(=O)Nc3ccc(C)cc3)n2)cc1`, the inhibition is -26.9%. For the compound `Cc1ccc(NC(=O)Cc2coc3ccc(C(C)C)cc23)c(C)c1`, the inhibition was -5.88%. The same measure for `CC1CCc2c(sc(NC(=O)c3cc(-c4cccc(Cl)c4)on3)c2C(N)=O)C1` (stereo not given): -10.1%. For `COc1ccc(CCNC(=O)CSc2cn(CCNC(=O)c3cccc(C(F)(F)F)c3)c3ccccc23)cc1OC` the value was -12.9%; for `CCC1CN(C(=O)Nc2cccc3c2CCCC3)c2cc(Cl)ccc2O1` (stereo not given), 0.0912%; for `O=C(Cn1ncc2ccsc2c1=O)N1CCN(c2ccc(F)cc2)CC1`, 4.53%. The same measure for `Cc1ccc(-n2ncc3c(N4CCC(C(N)=O)CC4)ncnc32)cc1`: -2.36%. As to `Cc1ccc(S(=O)(=O)N2CCc3cc(C(=O)Nc4ccc(C(F)(F)F)cc4)ccc32)cc1`, the inhibition was -13.1%. For `Cc1oc(-c2ccccc2Cl)nc1CS(=O)CC(=O)NCc1ccc(Cl)cc1` (stereo not given) the value was 6.13%.

For the compound `Cc1cc(C(F)F)n2nc(C(=O)Nc3ccc(C(C)C)cc3)nc2n1`, the inhibition turned out to be 4.48%. The same measure for `COC(=O)c1sc2ncccc2c1-n1c(C)ccc1C`: 17.4%; for `COc1ccccc1CNS(=O)(=O)c1ccc2c(c1)CC(=O)N2C`: -19.5%. For `CCOC(=O)N1CCN(C(=O)c2c(C)nn(-c3cccc(C)c3)c2-n2cccc2)CC1` the value was -2.83%; for `Cc1ccc(C)c(N2CCN(C(=O)CCS(=O)(=O)c3cc4c(cc3Cl)NC(=O)CO4)CC2)c1`, 11%; for `c1ccc2c(c1)OC(CCCN1CCCCC1)c1ccccc1S2` (stereo not given), active: 87%. For `Cc1ccc2oc3c(c(=O)c2c1)C(c1ccccc1F)N(CCCN(C)C)C3=O` (stereo not given) the value was 9.55%. Regarding `O=C(NCc1ccc2c(c1)CCN2C(=O)c1ccccc1)c1ccccc1`, the inhibition amounted to 5.15%. For `COc1ccc(CNC(=O)C2=C(C)C(=O)OC23CCCCC3)cc1` the value was -27%; for `COc1ccc(-n2ncc3c2ncn2nc(COc4ccc(Cl)cc4)nc32)cc1`, -10.9%; for `CCCSc1nnc2c(n1)OC(c1ccc(Br)s1)Nc1ccccc1-2` (stereo not given), 13.7%. The same measure for `CC(C)C(=O)N1c2nc(-c3ccco3)nn2C2(CCCCC2)[C@@H]2CCCC[C@@H]21`: 9.86%. The same measure for `CC(=O)Nc1ccc(S(=O)(=O)N2CCC(c3nnc(-c4ccc(C)cc4)o3)CC2)cc1`: -7.94%; for `Cc1oc2c(cc(NS(=O)(=O)c3ccc(C(C)C)cc3)c3ccccc32)c1C(=O)O`: 2.11%. For the compound `Cc1ccc(CCNc2ncnc3onc(-c4ccc(F)cc4)c23)cc1`, the inhibition stood at 2%.

Turning to `COc1cccc(CNC(=O)Cn2c(=O)n3nc(-c4cccc(F)c4)nc3c3ccccc32)c1`, the inhibition is 21.7%. The same measure for `CCN(CC)C(=O)c1sc2c(c1C)c(=O)n(-c1ccc(Cl)c(Cl)c1)c(=O)n2Cc1cc(=O)n2ccccc2n1`: -4.41%. For `O=C(Cn1c(=O)n(CCCS(=O)(=O)C2CCCCC2)c(=O)c2ccccc21)Nc1ccccc1C(F)(F)F` the value was 7.33%.

For `COc1ccc(NC(=O)CCn2c(=O)c3cccn3c3cccnc32)cc1Cl`, the inhibition is -7.4%. For `Cc1ccc(S(=O)(=O)c2[nH]c(-c3ccccc3)nc2SCC(N)=O)cc1` the value was 4.12%; for `Cc1cc2c(cc1S(=O)(=O)N1CCN(c3cccc(C)c3C)CC1)OCC(=O)N2`, active: 50%; for `O=C1CCCc2cc(S(=O)(=O)N3CCCC(C(=O)Nc4ccc(F)c(Cl)c4)C3)ccc2N1` (stereo not given), 2.6%. For `CCOc1ccc(C(=O)Nc2nnc(S(=O)(=O)Nc3ccccc3)s2)cc1` the value was -13%. The same measure for `CSc1cccc(Nc2cc(C(=O)NCCc3ccc(Cl)cc3)c3ccccc3n2)c1`: 2.1%; for `Cn1c(=O)[nH]c(=O)c2c1nc(CN1CCN(c3ccccc3F)CC1)n2CCc1ccccc1`: active: 46.1%.

On to `CC1CN(C(=O)N2CCC(C(=O)N3CCN(c4ccccc4)CC3)CC2)c2cc(Cl)ccc2O1` (stereo not given), for which the inhibition is -4.6%. The same measure for `CCOc1ccc2nc(N3CCC(C(=O)Nc4ccccc4CC)CC3)sc2c1`: -5.75%; for `COc1ccc(C2/C=C\CN(C(=O)c3ccc(C)cc3)[C@H](Cc3ccccc3)C(=O)N2Cc2ccc(F)cc2)cc1` (stereo not given in full): active: 41%; for `COC(=O)COc1ccc2oc(-c3ccc(OC)cc3)cc(=O)c2c1`: -6.92%. For `COc1ccc(N2CCN(C(=O)c3cnn(-c4ccc(F)cc4)c3-n3cccc3)CC2)cc1` the value was -1.25%.

As for `CCC1CCCCN1CCCNC(=O)CN1C(=O)c2cccnc2Oc2ccc(C)cc21` (stereo not given), the inhibition was 7.71%.

With `O=C(Nc1ccc(Br)cc1F)C1CCN(c2nc3ccccc3[nH]2)CC1`, the inhibition is -9.73%. For `CCOc1ccccc1CNC(=O)c1ccc(N2Cc3ccccc3Oc3ncccc32)s1` the value was 7.21%; for `COc1ccc(CNC(=O)CCCn2nc(C)c3sc4ccccc4c3c2=O)cc1OC`, 7.98%; for `Cc1cccc(NC(=O)N2CCN(C(=O)c3nsc4ccccc34)CC2)c1C`, 16.4%. The same measure for `Cc1ccc(CNC(=O)c2cccn2-c2nnc(N3CCCC3)s2)cc1`: -0.166%. For `Cc1ccc2c(CC(=O)Nc3ccc(S(=O)(=O)N4CCCCC4C)cc3)coc2c1` (stereo not given) the value was 0.119%; for `COc1cccc(NC(=O)CN2C(=O)CSc3ccc(S(=O)(=O)N4CCCC4)cc32)c1`, 9.81%; for `Cc1cc(N2CCCCC2)nc2ccc(NC(=O)/C=C/c3ccc(OC(C)C)cc3)cc12`, -6.6%. For `CCCN1CCN(C(=O)Cn2c(-c3cccs3)cc3ccccc32)CC1`, the inhibition was found to be 13.7%.

Regarding `COCCCNC(=O)C1CCN(C(=O)c2cnn(-c3ccccc3)c2-n2cccc2)CC1`, the inhibition was -3.92%. The same measure for `Cc1ccc(NC(=O)c2cnc(N3CCCCC3)c3ccccc23)c(C)c1`: -3.17%; for `CCCCOc1ccc(C2=NC(c3cccs3)=Nc3ccc(CC)cc3N2)cc1`: -6.13%; for `C=CCN(CC=C)S(=O)(=O)c1ccc(F)cc1`: active: 30.9%. For `COc1ccc(S(=O)(=O)n2nc(C)c(S(=O)(=O)N3CCCCCC3)c2C)cc1` the value was 4.28%. For `COC(=O)c1cc(S(=O)(=O)N2CCN(c3ccc(OC)cc3)CC2)c[nH]1` the value was -10.5%; for `COc1ccc(-c2[nH]ncc2CN2CCC(C(=O)c3ccc(F)cc3)CC2)cc1`, active: 82.9%.
